Data on 90 compounds can be found in PubChem BioAssay AID463173 (ICCB-Longwood Screening Facility, Harvard Medical School, 2010).

Screen size: about 52,000 compounds; about 1,700 (3.3%) were called active. Rule as the data show it: active = survival mostly below about 52% (no sharp cut-off); inactive = mostly above about 56%. Some of the results follow.

The experiment has as its system Wild type. Nature of the experiment: growth inhibition of S. aureus wild type versus tarO mutant, primary screen, teichoic acid synthesis inhibitors, RN4220, OD600 (AID 463173). To be noted: S. aureus RN4220 wild type/DeltatarO growth, OD600, 18 h, hits give low values, screened at 18.75 µg/mL (by protocol).
As for `CCOC(=O)C1CCCN(C(=O)c2ccc3c(c2)sc2nc(-c4ccc(C)cc4C)cn23)C1` (stereo not given), the survival was inactive: 58%. In the case of `COc1ccc(N(CCC#N)S(=O)(=O)c2ccc(Cl)cc2)cc1`, the survival is inactive: 102%. Turning to `Cc1ccc(CN(Cc2ccco2)C(=O)COc2cccc(C)c2C)o1`, the survival is inactive: 81%. To `COc1cc(NC(=O)c2ccc3c(Cl)c4c(nc3c2)CCC4)cc(OC)c1OC` belongs inactive: 76%; to `CC(=O)c1cccc(-n2c(=O)c3c4c(sc3n(CC(=O)Nc3ccccc3F)c2=O)CN(C(C)=O)CC4)c1`, inactive: 130%. `O=C(COc1ccc([N+](=O)[O-])cc1)N1CCC(c2nc3ccccc3s2)CC1`: the survival is inactive: 84%. For the compound `CCOC(=O)Cn1c(=O)c2c(nc(N3CCOCC3)n2Cc2ccccc2)n(C)c1=O`, the survival was inactive: 84%. To `CC(C)(CC(=O)OCC(=O)Nc1ccccc1F)CC1=NS(=O)(=O)c2ccccc2N1` belongs inactive: 60%; to `CCOc1ccc(N(C(C)C(=O)NCCSc2ccc(Cl)cc2)S(C)(=O)=O)cc1` (stereo not given), inactive: 73%. As for `CCc1ccc(CNC(=O)C2CCN(c3nnc(C)c4c(C)n(-c5ccc(C)cc5)nc34)CC2)cc1`, the figure is inactive: 74%; as for `Cc1cc(NC(=O)c2cc(-c3ccc(Br)cc3)on2)nn1Cc1ccc(Cl)cc1`, inactive: 141%; as for `CCOC(=O)C1CCN(c2cc(C)nc3c(-c4ccccc4OC)c(C)nn23)CC1`, inactive: 82%. As for `O=C(Cn1nc(-c2ccccc2)c2cnc3ccc(F)cc3c21)NC1CCCC1`, the figure is inactive: 75%. With `O=C(Nc1nnc(S(=O)(=O)N2CCCCCC2)s1)c1ccccc1F`, the survival is inactive: 50%. On to `COc1ccc(NCc2nnc(SCC(=O)c3ccc(OC)cc3)n2C)cc1`, for which the survival was inactive: 83%.

As for `Cc1nc(N2CCOCC2)c2c(C(=O)N(C)Cc3ccccc3)c(C)oc2n1`, the survival was inactive: 128%.

With `CCOc1cccc2sc(N3CCN(C(=O)C(C)(C)C)CC3)nc12`, the survival was inactive: 98%. Take `CCCCNC(=O)Cn1c(-c2ccc(C)cc2)noc1=O`: the survival is inactive: 114%. As for `Cc1cc(NC(=O)CSc2nc3c([nH]c4ccccc43)c(=O)n2-c2ccccc2F)no1`, the figure is inactive: 78%; as for `CCCCNc1nc(Oc2ccc(=O)n(-c3ccccc3)n2)nc(N(CC)CC)n1`, inactive: 98%. To `Cc1ccc(-c2nnc(SCC(=O)N3CCCc4ccccc43)o2)cc1` belongs inactive: 65%. As for `Cc1ccc(C(=O)c2oc3ccccc3c2NC(=O)c2cc(=O)c3cc(C)ccc3o2)cc1`, the survival was inactive: 109%. As for `COc1cccc(Cn2ccn(-c3ccc(F)cc3)c(=O)c2=O)c1`, the figure is inactive: 83%; as for `Cc1ccc(NC(=O)c2nnn(Cc3cccc(C(F)(F)F)c3)c2N)c(C)c1`, inactive: 97%; as for `Cc1cccc(Cn2c(SCc3ccc(C(=O)NCc4ccccc4)cc3)nc3cccnc32)c1`, inactive: 64%. As for `COc1ccc(CNC(=O)CCc2c(C)c3ccc(OC)c(C)c3oc2=O)cc1OC`, the figure is inactive: 79%; as for `COc1ccc(NC(=O)Cn2cc(C(=O)c3ccncc3)c(=O)c3cc(C)ccc32)cc1Cl`, inactive: 84%; as for `COC(=O)c1ccc(-n2nnc(-c3nc(-c4ccccc4Cl)no3)c2C)cc1`, inactive: 59%. With `CCNC(=O)C1CCCN(c2ncnc3onc(C)c23)C1` (stereo not given), the survival is inactive: 75%.

Turning to `Cc1nc2ccn(Cc3ccco3)c(=O)c2cc1C(=O)Nc1ccc(F)cc1`, the survival was inactive: 70%.

In the case of `COc1ccc(NC(=O)Cn2nc(-c3ccccc3)c3cnc4ccc(C)cc4c32)cc1`, the survival was inactive: 45%. To `O=C(CSc1ccccn1)Nc1ccc(Cl)cc1` belongs inactive: 105%. As for `COc1cc(OC)cc(C(=O)Nc2ccc(-c3nc4ccccc4s3)c(C)c2)c1`, the figure is inactive: 121%. Take `CN1CCN(C(=O)Cn2c(-c3cccs3)cc3ccccc32)CC1`: the survival was inactive: 66%. For `Cc1ccc(N2C(=O)CS(=O)(=O)C23C(=O)N(Cc2ccccc2C)c2ccccc23)cc1Cl` (stereo not given), the survival is inactive: 83%. Take `Cc1ccc(OCC(=O)Nc2ccc3c(c2)sc(=O)n3C)cc1`: the survival was inactive: 110%. On to `COc1ccc(-n2c(=O)[nH]c3cc(C(=O)NCCc4ccc(Cl)cc4)ccc3c2=O)cc1OC`, for which the survival was inactive: 78%. To `COc1ccc(NC(=O)C(NC(=O)C2CCC(C)CC2)C(C)C)cc1` (stereo not given) belongs inactive: 66%; to `CCC(Sc1ncccc1C(=O)Oc1ccccc1Cl)C(=O)Nc1ccccc1OC` (stereo not given), inactive: 71%. On to `Cc1ccc(-c2nc(C(=O)N3CCN(c4ccccc4)CC3)c3n2CCCCC3)cc1`, for which the survival was inactive: 82%. `Cc1nn(C)c2c1c(C(F)(F)F)cc(=O)n2C(C)C(=O)NCCC(C)C` (stereo not given): the survival is inactive: 77%. To `Cc1ccc2c(=O)c(C(=O)c3ccccc3)cn(CC(=O)Nc3ccc(C)c(Cl)c3)c2n1` belongs inactive: 68%; to `CCCNC(=O)c1ccc2c(c1)nc(C)n2-c1cccc(C)c1`, inactive: 82%. To `Cc1ccc(-c2ccc(CCC(=O)O)n2-c2cccc(C)c2C)cc1` belongs inactive: 64%; to `COc1ccc(NC(=O)c2c(C)oc3ccc(O)c(CN4CCCCCC4)c23)cc1`, inactive: 121%; to `Cc1ccc(C)c(N2CCN(C(=O)CN3C(=O)COc4ccc(S(=O)(=O)N5CCC(C)CC5)cc43)CC2)c1`, inactive: 78%. To `CCOc1ccc(Br)cc1S(=O)(=O)Nc1cccc(-c2ccc(OC)nn2)c1` belongs inactive: 72%. Take `Cc1ccc(N2CCN(S(=O)(=O)c3ccc(-n4cnnn4)cc3)CC2)c(C)c1`: the survival was inactive: 97%.

Turning to `CC(=O)O/N=C1/CC(C)(C)Cc2onc(C)c21`, the survival is inactive: 102%.

For the compound `Cc1ccc(Cl)cc1N1CCN(C(=O)c2ccc3c(c2)N(Cc2ccccc2)CCS3)CC1`, the survival was inactive: 76%. To `COc1ccc(-n2c(=O)c3c4c(sc3n(Cc3ccc(C(C)(C)C)cc3)c2=O)CCC4)c(OC)c1` belongs inactive: 62%; to `CCn1nnc2cc(C(=O)Nc3ccc(OC)cc3)ccc21`, inactive: 73%.

For `Cc1cn2c(=O)cc(COC(=O)c3ccc(NC(=O)C(C)Oc4ccccc4)cc3)nc2s1` (stereo not given), the survival is active: 0%. Turning to `CCOCCCNC(=O)c1c(NC(=O)c2nc(SC)ncc2Cl)sc2c1CCCC2`, the survival is inactive: 95%. As for `Cc1cc(C)nc(Nc2nc3ccccc3c(=O)[nH]2)n1`, the figure is inactive: 101%; as for `COc1ccc(CCNC(=O)c2cc(=O)[nH]c3ccc(S(=O)(=O)N4CCCCC4C)cc23)cc1OC` (stereo not given), inactive: 127%. As for `CS(=O)(=O)c1cccc(S(=O)(=O)c2cccc(S(C)(=O)=O)c2)c1`, the figure is inactive: 86%. For the compound `COc1cccc(NC(=O)Cc2csc(COc3cccc(C)c3)n2)c1`, the survival was inactive: 90%.

As to `CCOC(=O)c1c(N)n(-c2cc(C)cc(C)c2)c2nc3ccccc3nc12`, the survival is inactive: 78%. On to `COc1ccc(OC)c(NC(=O)CCNC(=O)Cn2cnc3ccccc3c2=O)c1`, for which the survival was inactive: 65%.

For `Fc1ccc(Nc2c(-c3ccccn3)nc3ccc(Cl)cn23)cc1`, the survival is inactive: 73%. Consider `O=C1CCCC/C1=C/Nc1ccc2c(c1)OCO2`, for which the survival is inactive: 105%. To `O=C(Nc1cc(Cl)cc(Cl)c1)c1cc(S(=O)(=O)N2CCC3(CC2)OCCO3)ccc1F` belongs inactive: 72%. For `O=C(NCCc1ccccc1)c1nn(-c2ccccc2Cl)nc1CO`, the survival is inactive: 86%. To `COc1ccc2oc(-c3cccc(F)c3)cc(=O)c2c1` belongs inactive: 109%. As for `Cc1ccc(C)c(-n2nnc(C(=O)Nc3ccc(Br)cc3)c2C)c1`, the figure is inactive: 45%. To `c1ccc(N2CCN(Cc3nnnn3Cc3ccc4c(c3)OCO4)CC2)cc1` belongs inactive: 107%. Regarding `COCCn1c(C)cc(O)c(C(c2ccc(OC)cc2)N2CCN(c3ccccc3)CC2)c1=O` (stereo not given), the survival is inactive: 49%. To `CC1CCCCN1C(=O)CSc1c2c(nc3cc(Cl)ccc13)CCCC2` (stereo not given) belongs active: -1%; to `COc1cccc(N2CCN(C(=O)C3CCN(S(=O)(=O)c4cn(C)cn4)CC3)CC2)c1`, inactive: 148%.

On to `CCOCCn1c(=O)c2c(nc3n2CCN3c2ccc(C)c(C)c2)n(C)c1=O`, for which the survival is inactive: 85%. To `Cc1cc(C)cc(NC(=O)COCc2cc(-c3ccc4c(c3)OCO4)on2)c1` belongs inactive: 47%. As for `Cc1ccc(-n2ncc3c(Nc4cccc(C(F)(F)F)c4)ncnc32)cc1C`, the figure is inactive: 70%; as for `Cc1cc2c(cc1S(=O)(=O)NCc1ccccc1Cl)OCC(=O)N2`, inactive: 75%; as for `COc1cccc(-c2nc(CS(=O)(=O)CC(=O)NCCc3ccc(Cl)cc3)c(C)o2)c1`, inactive: 78%. To `COc1ccc(OC)c(NC(=O)Cn2cnc3onc(-c4ccc(Cl)cc4)c3c2=O)c1` belongs inactive: 132%; to `COc1ccc(NC(=O)CN(C)S(=O)(=O)c2ccc3c(c2)c(=O)n(C)c(=O)n3C)cc1`, inactive: 124%. Regarding `NS(=O)(=O)c1ccc(NC(=O)c2csnn2)cc1`, the survival is inactive: 80%. As to `CC(C)c1ccc(NC(=O)c2cnc3sc(N4CCOCC4)nn3c2=O)cc1`, the survival was inactive: 120%. Consider `COc1ccc(OCC2c3cc(OC)c(OC)cc3CCN2C(=O)c2c(F)cccc2F)cc1` (stereo not given), for which the survival is inactive: 121%. As for `Cc1ccc(C(=O)NCC(c2ccco2)S(=O)(=O)c2ccc(Cl)cc2)cc1C` (stereo not given), the figure is active: 14%; as for `CCCCNC(=O)c1cn(C)c2ccc(S(=O)(=O)N3CCCC3)cc2c1=O`, inactive: 126%.

As for `COc1ccc(-c2nc3ccc(Cl)cn3c2Nc2ccc(C)cc2)cc1`, the survival is inactive: 65%. As for `CCc1ccc(-n2nc(CO)c(C(=O)NCc3cccs3)n2)cc1`, the figure is inactive: 89%; as for `O=C1CCCc2c1[nH]c1ccccc21`, inactive: 118%.

As to `Cc1ncsc1C(=O)O`, the survival was inactive: 102%. As for `COc1cc(OC)c(NC(=O)Cn2cnc3sc(C)c(S(=O)(=O)N4CCC(C)CC4)c3c2=O)cc1Cl`, the figure is inactive: 75%; as for `COc1ccc(N2CC(NC(=O)C(=O)c3c(C)[nH]c4ccccc34)CC2=O)cc1` (stereo not given), inactive: 113%; as for `O=C(CSc1nc(=O)n(Cc2ccco2)c2c1CCC2)NCc1ccc(Cl)cc1`, inactive: 97%. For `C=CCSc1nc(O)c(CC(C)C)c(=O)[nH]1`, the survival is inactive: 102%.
